Experimental data: the supplement of paper PMC8728848
Some of the results follow.

Tests used:
Experiment in all cases: glycan array binding signal (z-score within array); higher = stronger binding
Details in all cases: glycan notation: IUPAC condensed, linker removed
[1] = target: Gal(b1-4)GlcNAc(b1-3)Gal(b1-4)GlcNAc(b1-3)Gal(b1-4)GlcNAc(b1-2)[Gal(b1-4)GlcNAc(b1-3)Gal(b1-4)GlcNAc(b1-3)Gal(b1-4)GlcNAc(b1-6)]Man(a1-6)[Gal(b1-4)GlcNAc(b1-3)Gal(b1-4)GlcNAc(b1-3)Gal(b1-4)GlcNAc(b1-2)Man(a1-3)]Man(b1-4)GlcNAc(b1-4)[Fuc(a1-6)]GlcNAc
Summary of the method: (§1)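 Glycan array binding is given as a within-array Z-score, which can be read as non-binding when negative. The arrays, 3228 of them, came from the Consortium for Functional Glycomics database and were retained only where the protein sequence was available. Z-scores were averaged across arrays of the same protein sequence at different concentrations or buffers and across linkers.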

[2] = target: Gal(b1-4)GlcNAc(b1-3)Gal(b1-4)GlcNAc(b1-3)Gal(b1-4)GlcNAc(b1-3)Gal(b1-4)GlcNAc(b1-2)Man(a1-3)[Gal(b1-4)GlcNAc(b1-3)Gal(b1-4)GlcNAc(b1-3)Gal(b1-4)GlcNAc(b1-3)Gal(b1-4)GlcNAc(b1-2)Man(a1-6)]Man(b1-4)GlcNAc(b1-4)GlcNAc
Summary of the method: as §1

[3] = target: Gal(b1-4)GlcNAc(b1-3)Gal(b1-4)GlcNAc(b1-3)Gal(b1-4)GlcNAc(b1-3)Gal(b1-4)GlcNAc(b1-2)Man(a1-3)[Gal(b1-4)GlcNAc(b1-3)Gal(b1-4)GlcNAc(b1-3)Gal(b1-4)GlcNAc(b1-3)Gal(b1-4)GlcNAc(b1-2)Man(a1-6)]Man(b1-4)GlcNAc(b1-4)[Fuc(a1-6)]GlcNAc
Summary of the method: as §1

[4] = target: Gal(b1-4)GlcNAc(b1-3)Gal(b1-4)GlcNAc(b1-3)Gal(b1-4)GlcNAc(b1-3)Gal(b1-4)GlcNAc(b1-2)[Gal(b1-4)GlcNAc(b1-3)Gal(b1-4)GlcNAc(b1-3)Gal(b1-4)GlcNAc(b1-3)Gal(b1-4)GlcNAc(b1-6)]Man(a1-6)[Gal(b1-4)GlcNAc(b1-3)Gal(b1-4)GlcNAc(b1-3)Gal(b1-4)GlcNAc(b1-3)Gal(b1-4)GlcNAc(b1-2)Man(a1-3)]Man(b1-4)GlcNAc(b1-4)[Fuc(a1-6)]GlcNAc
Summary of the method: as §1

[5] = target: Gal(b1-4)GlcNAc(b1-3)Gal(b1-4)GlcNAc(b1-3)Gal(b1-4)GlcNAc(b1-3)Gal(b1-4)GlcNAc(b1-3)Gal(b1-4)GlcNAc(b1-2)Man(a1-3)[Gal(b1-4)GlcNAc(b1-3)Gal(b1-4)GlcNAc(b1-3)Gal(b1-4)GlcNAc(b1-3)Gal(b1-4)GlcNAc(b1-3)Gal(b1-4)GlcNAc(b1-2)Man(a1-6)]Man(b1-4)GlcNAc(b1-4)GlcNAc
Summary of the method: as §1

[6] = target: Gal(b1-4)GlcNAc(b1-3)Gal(b1-4)GlcNAc(b1-3)Gal(b1-4)GlcNAc(b1-3)Gal(b1-4)GlcNAc(b1-3)Gal(b1-4)GlcNAc(b1-2)Man(a1-3)[Gal(b1-4)GlcNAc(b1-3)Gal(b1-4)GlcNAc(b1-3)Gal(b1-4)GlcNAc(b1-3)Gal(b1-4)GlcNAc(b1-3)Gal(b1-4)GlcNAc(b1-2)Man(a1-6)]Man(b1-4)GlcNAc(b1-4)[Fuc(a1-6)]GlcNAc
Summary of the method: as §1

[7] = target: Gal(b1-4)GlcNAc(b1-3)Gal(b1-4)GlcNAc(b1-3)Gal(b1-4)GlcNAc(b1-3)Gal(b1-4)GlcNAc(b1-3)Gal(b1-4)GlcNAc(b1-2)[Gal(b1-4)GlcNAc(b1-3)Gal(b1-4)GlcNAc(b1-3)Gal(b1-4)GlcNAc(b1-3)Gal(b1-4)GlcNAc(b1-3)Gal(b1-4)GlcNAc(b1-6)]Man(a1-6)[Gal(b1-4)GlcNAc(b1-3)Gal(b1-4)GlcNAc(b1-3)Gal(b1-4)GlcNAc(b1-3)Gal(b1-4)GlcNAc(b1-3)Gal(b1-4)GlcNAc(b1-2)Man(a1-3)]Man(b1-4)GlcNAc(b1-4)[Fuc(a1-6)]GlcNAc
Summary of the method: as §1

[8] = target: Gal(b1-4)GlcNAc(b1-3)Gal(b1-4)GlcNAc(b1-3)Gal(b1-4)GlcNAc(b1-3)Gal(b1-4)GlcNAc(b1-3)Gal(b1-4)GlcNAc(b1-3)Gal(b1-4)GlcNAc(b1-2)Man(a1-3)[Gal(b1-4)GlcNAc(b1-3)Gal(b1-4)GlcNAc(b1-3)Gal(b1-4)GlcNAc(b1-3)Gal(b1-4)GlcNAc(b1-3)Gal(b1-4)GlcNAc(b1-3)Gal(b1-4)GlcNAc(b1-2)Man(a1-6)]Man(b1-4)GlcNAc(b1-4)GlcNAc
Summary of the method: as §1

[9] = target: Gal(b1-4)GlcNAc(b1-3)Gal(b1-4)GlcNAc(b1-3)GalNAc
Summary of the method: as §1

[10] = target: Gal(b1-4)GlcNAc(b1-3)Gal(b1-4)GlcNAc(b1-3)[Gal(b1-4)GlcNAc(b1-3)Gal(b1-4)GlcNAc(b1-6)]GalNAc
Summary of the method: as §1

[11] = target: Gal(b1-4)GlcNAc(b1-3)Gal(b1-4)GlcNAc(b1-6)[Gal(b1-3)]GalNAc
Summary of the method: as §1

[12] = target: Gal(b1-4)GlcNAc(b1-3)Gal(b1-4)[Fuc(a1-3)GlcNAc(b1-6)]Gal(b1-4)Glc
Summary of the method: as §1

[13] = target: Gal(b1-4)GlcNAc(b1-3)Gal(b1-4)[Fuc(a1-3)]GlcNAc(b1-3)Gal(b1-4)[Fuc(a1-3)]GlcNAc
Summary of the method: as §1

[14] = target: Gal(b1-4)GlcNAc(b1-3)GalNAc
Summary of the method: as §1

[15] = target: Gal(b1-4)GlcNAc(b1-3)[Fuc(a1-3)GlcNAc(b1-6)]Gal(b1-4)Glc
Summary of the method: as §1

[16] = target: Gal(b1-4)GlcNAc(b1-3)[Gal(b1-4)GlcNAc(b1-6)]Gal(b1-4)GlcNAc
Summary of the method: as §1

[17] = target: Gal(b1-4)GlcNAc(b1-3)[Gal(b1-4)GlcNAc(b1-6)]GalNAc
Summary of the method: as §1

[18] = target: Gal(b1-4)GlcNAc(b1-3)[GlcNAc(b1-6)]Gal(b1-4)GlcNAc
Summary of the method: as §1

[19] = target: Gal(b1-4)GlcNAc(b1-6)Gal(b1-4)GlcNAc
Summary of the method: as §1

B1: rAAL-2 (Agrocybe aegerita) (protein)
chain: MTSNVITQDLPIPVASRGFADIVGFGLDGVVIGRNAVNLQPFLAVKNFAQNAGGWLTTKHVRLIADTTGTGKGDIVGFGNAGVYVSVNNGKNTFADPPKMVIANFGYDAGGWRVEKHLRYLADIRKIGRADIIGFGEKGVLVSRNNGGLNFGPATLVLKDFGYDAGGWRLDRHLRFLADVTGNGHLDIVGFGDKHVFISRNNGDGTFAPAKSVIDNFCIDAGGWKIGDHPRFVADLTGDGTADIIGCGKAGCWVALNNGGGVFGQVKLVINDFGTDKGWQAAKHPRFIADLTGNGRGDVVGFGNAGVYVALNNGDGTFQSAKLVLKDFGVQQGWTVSKHRRFVVDLTGDGCADIIGFGEKETLVSYNDGKGNFGPVKALTNDFSFSGGKWAPETTVCWMANLDSSRH
[1]
  glycan array binding signal (z-score): -0.234
[2]
  glycan array binding signal (z-score): -0.071
[3]
  glycan array binding signal (z-score): -0.088
[4]
  glycan array binding signal (z-score): -0.361
[5]
  glycan array binding signal (z-score): -0.319
[6]
  glycan array binding signal (z-score): -0.096
[7]
  glycan array binding signal (z-score): 0.032
[8]
  glycan array binding signal (z-score): -0.303
[9]
  glycan array binding signal (z-score): -0.073
[10]
  glycan array binding signal (z-score): 0.004
[11]
  glycan array binding signal (z-score): -0.017
[12]
  glycan array binding signal (z-score): -0.252
[13]
  glycan array binding signal (z-score): -0.168
[14]
  glycan array binding signal (z-score): -0.36
[15]
  glycan array binding signal (z-score): -0.377
[16]
  glycan array binding signal (z-score): -0.393
[17]
  glycan array binding signal (z-score): -0.248
[18]
  glycan array binding signal (z-score): 0.113
[19]
  glycan array binding signal (z-score): -0.213
